# In PubChem BioAssay AID485344 (National Center for Advancing Translational Sciences (NCATS), 2010):
# Screen size: about 340,000 compounds; about 6,900 (2%) were called active. Cut-off read from the data, not from the text of the source: active = inhibition above about 30%; inactive = below that, where a call was filed. Only a part is listed here, and it is no random draw. The source gives no active or inactive call for entries shown without one.
# Target: D(2) dopamine receptor (Homo sapiens) (UniProt P14416)
# Assay: HTS Assay for Allosteric Antagonists of the Human D2 Dopamine Receptor: Primary Screen for Antagonists; note: 0% is about no effect
# Details: HEK293 TREx D2 cells, calcium flux, dopamine EC80; at 10 µM; stronger effect = higher value
# Method in brief: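 Antagonism is scored as inhibition of an EC80 dopamine-evoked calcium signal in a force-coupled, tetracycline-inducible HEK293 T-REx D2 line, with compound present 180 s before agonist.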
# Chain of UniProt P14416 (P14416 whole entry, looked up): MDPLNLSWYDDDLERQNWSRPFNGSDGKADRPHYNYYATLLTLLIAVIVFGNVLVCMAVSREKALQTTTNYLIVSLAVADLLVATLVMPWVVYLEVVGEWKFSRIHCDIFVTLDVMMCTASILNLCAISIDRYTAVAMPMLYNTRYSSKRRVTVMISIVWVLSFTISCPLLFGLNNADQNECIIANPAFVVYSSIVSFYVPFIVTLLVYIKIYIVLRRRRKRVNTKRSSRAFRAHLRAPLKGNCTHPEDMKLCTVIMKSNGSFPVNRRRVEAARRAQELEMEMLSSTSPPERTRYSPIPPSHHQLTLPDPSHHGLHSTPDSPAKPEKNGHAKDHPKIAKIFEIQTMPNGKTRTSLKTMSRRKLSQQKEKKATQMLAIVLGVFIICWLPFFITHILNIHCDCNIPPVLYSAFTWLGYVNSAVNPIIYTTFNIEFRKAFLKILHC
row,SMILES,inhibition
1,CCOc1cc2[nH]c(=O)n(CCC(=O)N3CCN(c4cccc(Cl)c4)CC3)c(=O)c2cc1OCC,-19.8%
2,CN1CCN(c2ccc(NS(=O)(=O)c3ccc(Cl)cc3)cn2)CC1,active: 32.7%
3,CCOC(=O)Cn1nc(C)c(NC(=O)COc2ccc(OC)cc2)c1C,14.1%
4,CCn1c2ccccc2c2cc(NC(=O)COc3cc(C)c(Cl)c(C)c3)ccc21,-7.87%
5,CCOc1ccc(-c2csc3ncnc(Nc4cccc(O)c4)c23)cc1,3.34%
6,Cc1ccccc1C(=O)Nc1ccc(NC(=O)c2cccs2)cc1,-1.87%
7,CCOc1ccc(CCNC(=O)C2CCCN(c3nnc(C)c4c(C)n(-c5ccccc5)nc34)C2)cc1 (centres undefined),-8.72%
8,NC(=O)c1c(NC(=O)c2noc3c2CCCC3)sc2c1CCCC2,7.09%
9,CN(CCNC(=O)c1cn(C)c2ccc(S(=O)(=O)N(C)C)cc2c1=O)CCc1ccccc1,active: 45.2%
10,COc1ccccc1N1CCN(C(=O)C2CCN(S(=O)(=O)c3cccc4nonc34)CC2)CC1,-12.9%
11,Nc1ncc(S(=O)(=O)NCc2ccccc2F)cn1,15.1%
12,Cc1ccc(Nc2cc(C(=O)NC3CCCC3)c3ccccc3n2)cc1C,-13.2%
13,COc1ccccc1OCC(=O)Nc1ccc2c(c1)OCO2,active: 32.3%
14,CCOC(=O)c1c(C)n(-c2ccccc2)c2ccc(OC(=O)c3ccccc3Cl)cc12,-5.18%
15,CC(C)COc1ccc(C(=O)NCC2OCCc3ccccc32)cc1 (centres undefined),6.24%
16,Cc1cccc(CNC(=O)c2ccc(-c3nc(CS(=O)(=O)c4ccccc4)c(C)o3)cc2)c1,10.9%
17,Cc1ccc(NC(=O)COc2ccc3oc4c(c3c2)CCCC4)c(C)c1,17.2%
18,CN(C)c1ccc(-c2nc(-c3ccccn3)no2)cc1[N+](=O)[O-],9.02%
19,Cc1cc(C)n2nc(CNC(=O)c3cccc(Cl)c3)nc2n1,-3.36%
20,COc1ccccc1N1CCN(Cc2ccc(-c3ccccc3[N+](=O)[O-])o2)CC1,active: 85.6%
21,CSc1ccc(CCNC(=O)C(C)n2nc(C)c3c(C)n(-c4ccccc4)nc3c2=O)cc1 (centres undefined),18.1%
22,Cc1cc(F)ccc1NC(=O)C1CCCN(c2nnc(-n3c(C)ccc3C)s2)C1 (centres undefined),8.24%
23,COc1ccc(NC(=O)Cn2c(=O)nc(-c3ccccc3)c3ccccc32)cc1OC,-0.957%
24,Cn1ncc(C(=O)N2CCN(c3ccccc3)CC2)c1C1CCN(C(=O)OC(C)(C)C)CC1,1.14%
25,Cc1ccc(CCNC(=O)NCc2noc3ccc(C)cc23)cc1,18.1%

row,SMILES,inhibition
1,Cc1cccc(NC(=O)CSc2nnc(-c3cccs3)o2)c1,-16.3%
2,Cc1cccc(NC(=O)C(c2ccccc2)N2Cc3ccccc3C2=O)c1C (centres undefined),-6.39%
3,Cc1noc2ncnc(Nc3ccc(F)cc3)c12,-8.12%
4,COC(=O)c1sccc1S(=O)(=O)N(CC(=O)Nc1ccc(C)cc1)c1ccccc1,7.96%
5,COc1cccc2cc(-c3nnc(Nc4ccccc4C)s3)c(=O)oc12,-6.11%
6,COc1ccccc1N1CCN(C(=O)CCn2cnc3onc(-c4ccc(F)cc4)c3c2=O)CC1,9.15%
7,COc1ccc(NS(=O)(=O)c2ccc3c(c2)CCN3C(=O)C2CC2)cc1OC,19.4%
8,Cc1cc(C)c2c(=O)cc(C(=O)NCCc3ccc(S(N)(=O)=O)cc3)oc2c1,3.1%
9,CCNc1nc(N)c(C(=C(C#N)C#N)c2ccccc2)s1,active: 45.3%
10,COc1cccc(CNC(=O)Cn2c(=O)c3cccn3c3ccc(F)cc32)c1OC,5.92%
11,CSc1cccc(CNC(=O)C2CCC(=O)N(CCCN3CCCC3=O)C2)c1 (centres undefined),active: 85.7%
12,Cc1ccccc1CNC(=O)C(=O)NCC(c1ccco1)S(=O)(=O)c1ccc(F)cc1 (centres undefined),-20.9%
13,CCc1ccc(C(C)NC(=S)NC2CCCCC2)cc1 (centres undefined),active: 48.2%
14,CCCS(=O)(=O)N1CCC(N2CCN(Cc3ccc(C)cc3)C(=O)C2=O)CC1,2.74%
15,Cc1nn(C)c2c1c(-c1ccccc1)cc(=O)n2Cc1ccccc1F,-6.65%
16,Cc1c(Cl)cccc1NC(=O)N1CCN(Cc2cc(=O)n3nc(-c4ccccc4F)sc3n2)CC1,-12.4%
17,NC(=O)CSc1ncc2c(n1)-c1ccccc1N(Cc1ccccc1)S2(=O)=O,-0.264%
18,COc1ccc(NC(=O)c2cccc(N3CCCS3(=O)=O)c2)cc1,-3.85%
19,CN(C)c1ccc(C(CNC(=O)COc2ccccc2)N2CCOCC2)cc1 (centres undefined),2.64%
20,O=C(CN1C(=O)CCSc2ccc(S(=O)(=O)N3CCCC3)cc21)Nc1cccc(Cl)c1,10.7%
21,Cc1ccc(N/C(N)=N/c2nc(C)cc(C)n2)cc1,active: 31.1%
22,COc1cc(Cl)c(C)cc1NC(=O)CSc1cc(=O)n(C)c2cc(Cl)ccc12,-6.95%
23,Cn1ncc2c(NCc3cccc(Cl)c3)ncnc21,-25.8%
24,CCN(CC)S(=O)(=O)c1ccc2c(c1)N(CC(=O)NCc1ccccc1)C(=O)CS2,9.33%
